Reference: the supplement of paper PMC3334620
Over roughly 33,000 sequences, “E-score (-0.5 to 0.5)” has its median near -0.035; the highest 2% begin near 0.35. This is one part of the list.

Molecular target: T1, Pdr3 (UniProt P33200)
T1 sequence: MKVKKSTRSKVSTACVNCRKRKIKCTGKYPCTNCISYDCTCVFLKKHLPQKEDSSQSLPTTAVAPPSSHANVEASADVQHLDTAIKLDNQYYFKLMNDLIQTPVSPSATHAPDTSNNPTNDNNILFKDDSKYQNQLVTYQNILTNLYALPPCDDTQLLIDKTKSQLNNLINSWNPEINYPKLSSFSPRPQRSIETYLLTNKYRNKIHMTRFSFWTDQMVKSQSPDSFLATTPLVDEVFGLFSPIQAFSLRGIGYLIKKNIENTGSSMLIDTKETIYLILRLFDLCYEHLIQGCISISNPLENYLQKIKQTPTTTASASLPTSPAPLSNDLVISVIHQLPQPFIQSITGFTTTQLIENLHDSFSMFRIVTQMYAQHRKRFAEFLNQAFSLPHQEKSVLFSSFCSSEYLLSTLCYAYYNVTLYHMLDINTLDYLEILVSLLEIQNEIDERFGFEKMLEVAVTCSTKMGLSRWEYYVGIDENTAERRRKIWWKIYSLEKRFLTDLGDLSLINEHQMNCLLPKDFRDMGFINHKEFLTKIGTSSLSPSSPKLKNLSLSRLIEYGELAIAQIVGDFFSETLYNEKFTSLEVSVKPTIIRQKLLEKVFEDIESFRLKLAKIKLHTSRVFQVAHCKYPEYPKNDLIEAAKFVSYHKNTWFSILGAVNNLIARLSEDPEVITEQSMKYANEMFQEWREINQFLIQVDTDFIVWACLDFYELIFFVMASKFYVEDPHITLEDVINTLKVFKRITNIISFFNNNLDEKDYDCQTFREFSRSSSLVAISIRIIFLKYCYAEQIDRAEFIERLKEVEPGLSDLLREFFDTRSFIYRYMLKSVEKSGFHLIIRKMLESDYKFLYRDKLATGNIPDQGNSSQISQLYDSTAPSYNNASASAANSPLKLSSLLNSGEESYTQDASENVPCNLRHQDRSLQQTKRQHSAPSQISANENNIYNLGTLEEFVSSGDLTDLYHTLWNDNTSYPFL
Assay: PBM E-score (8-mer binding enrichment) (E-score (-0.5 to 0.5)); higher = stronger / more preferred TF binding; most listed sequences are background and not binding sites
Conditions: protein concentration: 200 nM; construct: GST-full length
Method in brief: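 Masliner-normalised scans of fluorescent anti-GST signal were the basis for scoring. That signal came from GST-tagged yeast transcription factors applied at about 100-200 nM to double-stranded universal all-10-mer Agilent arrays on fresh or once-stripped slides. Each ungapped eight-base word, pooled with its reverse complement, received an E-score from the Universal PBM Analysis Suite.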

Row | Sequence | PBM E-score
1 | AAGATAGC | -0.00731
2 | AAGCTTTG | -0.0525
3 | ATGTGAGC | -0.179
4 | TCAGGTCA | -0.0755
5 | ACTCGTGA | -0.248
6 | CGTCCCGC | 0.338
7 | AACGTTCG | 0.0638
8 | GCTTCGAC | -0.155
9 | ACGTAGGG | -0.276
10 | ATAGGCTG | -0.237
11 | AGTCAGGG | -0.388
12 | AGCCTTGC | -0.071
13 | ACTATGTC | -0.0403
14 | CCAAATGG | -0.0949
15 | AAGGCGTA | -0.289
16 | CGGTTCGC | 0.0341
17 | CGAGCAGC | 0.038
18 | GAGGATCA | -0.0387
19 | GTGGTTGA | -0.193
20 | AGATGGAA | 0.059
21 | AATTTAGT | 0.112
22 | TGCGGCCA | 0.0662

Row | Sequence | PBM E-score
23 | ACCCCTAC | -0.242
24 | AATAGGTG | -0.229
25 | CTTGGACA | -0.0848
26 | AGCCCTAT | -0.145
27 | CTTACACC | -0.124
28 | AAAAACAT | -0.121
29 | GACCAAAC | -0.0395
30 | TAGTCCGA | 0.11
31 | GCTCAGCA | -0.114
32 | AAGTATTA | -0.148
33 | ACACCCGC | 0.266
34 | CCTGAGGA | 0.00848
35 | CAAGTGGA | -0.216
36 | AAACTTTA | 0.00534
37 | AGCCGGAT | 0.391
38 | CACAACAA | -0.0956
39 | AATCTGGT | 0.0738
40 | CGTACTAC | 0.0384
41 | GAAACTTA | 0.115
42 | CGTAGAAA | -0.105
43 | AGTTTTTA | -0.308
44 | AGGAAGCA | -0.16

Row | Sequence | PBM E-score
45 | AGATTCAT | -0.0927
46 | CAGTCGCC | -0.142
47 | TGAACCCA | -0.0442
48 | ACAGCCAC | 0.106
49 | CACCCTGG | -0.197
50 | CCTCATGC | -0.177
51 | AGGGCACT | -0.224
52 | ATCTCTTG | -0.289
53 | CTCCCATA | -0.31
54 | GCTACGCC | -0.223
55 | GAGGGAAA | -0.163
56 | ATTGCAGA | -0.066
57 | CCGTAACC | 0.211
58 | AGAGGAGC | -0.211
59 | CCGCGAAC | 0.228
60 | AACAGTTA | 0.0467
61 | ACGCGCCG | 0.229
62 | AATCCATG | 0.0174
63 | AAATTCAT | -0.0189
64 | ATCGTCCG | 0.339
65 | ACTTCATG | -0.0932
66 | CACCCGTA | 0.151

Row | Sequence | PBM E-score
67 | ATACCCCC | 0.00568
68 | CGGGAAAC | 0.309
69 | AGGCTCAG | -0.266
70 | CCTAGGTA | -0.174
71 | GGCGGAAA | 0.361
72 | CCCAGACG | -0.133
73 | ACTCTGAG | -0.239
74 | CGGTCGTC | -0.0408
75 | ACCATGGT | -0.282
76 | CCCCTTTA | -0.319
77 | CCCCCACC | -0.24
78 | ATACTCTC | -0.0285
79 | CACGGGAA | 0.223
80 | GAGAACCA | -0.0398
81 | AAGAGAAG | -0.158
82 | AGCGTTGC | 0.0508
83 | AGTCAGAG | -0.0475
84 | TAATCGCA | -0.092
85 | CAACGGCG | 0.176
86 | AGTGTTGC | -0.0478
